Changes are numbered by the printed parent chain. Results are given in words; binding and its absence hold for the method and conditions named. In cells and extracts the contact can be indirect. Some entries that bind do so weakly or less than the wild type. For some assays here: Tags and fused reporters may be left off the sequences shown.

Sequences of proteins named here, by UniProt entry; tags and fusion partners are left off.
UniProt Q13191: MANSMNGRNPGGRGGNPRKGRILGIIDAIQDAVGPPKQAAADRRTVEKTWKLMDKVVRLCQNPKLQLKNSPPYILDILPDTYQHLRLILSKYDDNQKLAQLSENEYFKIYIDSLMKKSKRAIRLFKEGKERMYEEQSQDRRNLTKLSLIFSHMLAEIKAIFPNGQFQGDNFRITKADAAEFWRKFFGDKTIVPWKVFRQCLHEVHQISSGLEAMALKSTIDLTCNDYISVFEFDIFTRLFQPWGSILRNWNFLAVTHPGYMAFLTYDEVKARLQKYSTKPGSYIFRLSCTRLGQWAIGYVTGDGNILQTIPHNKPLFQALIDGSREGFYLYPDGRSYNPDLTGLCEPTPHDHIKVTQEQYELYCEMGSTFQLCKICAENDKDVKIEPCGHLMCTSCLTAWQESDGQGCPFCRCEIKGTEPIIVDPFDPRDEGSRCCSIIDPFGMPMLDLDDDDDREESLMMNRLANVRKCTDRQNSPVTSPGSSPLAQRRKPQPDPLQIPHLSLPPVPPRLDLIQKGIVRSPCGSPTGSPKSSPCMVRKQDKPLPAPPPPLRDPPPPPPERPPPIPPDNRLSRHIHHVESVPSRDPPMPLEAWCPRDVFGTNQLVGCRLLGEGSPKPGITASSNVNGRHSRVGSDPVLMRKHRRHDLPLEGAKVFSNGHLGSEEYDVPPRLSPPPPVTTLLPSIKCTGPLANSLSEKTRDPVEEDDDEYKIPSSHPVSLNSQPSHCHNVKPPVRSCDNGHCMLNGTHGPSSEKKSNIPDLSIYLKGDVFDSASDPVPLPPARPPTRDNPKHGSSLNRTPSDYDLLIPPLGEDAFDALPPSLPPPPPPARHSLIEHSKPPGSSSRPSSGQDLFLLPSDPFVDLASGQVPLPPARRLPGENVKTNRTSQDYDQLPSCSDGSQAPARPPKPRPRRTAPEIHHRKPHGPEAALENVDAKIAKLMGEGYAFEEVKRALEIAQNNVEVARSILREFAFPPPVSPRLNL

The target of assay [1] is T1, HA-epitope tagged Cbl-c, full length (UniProt Q9ULV8).
T1 sequence: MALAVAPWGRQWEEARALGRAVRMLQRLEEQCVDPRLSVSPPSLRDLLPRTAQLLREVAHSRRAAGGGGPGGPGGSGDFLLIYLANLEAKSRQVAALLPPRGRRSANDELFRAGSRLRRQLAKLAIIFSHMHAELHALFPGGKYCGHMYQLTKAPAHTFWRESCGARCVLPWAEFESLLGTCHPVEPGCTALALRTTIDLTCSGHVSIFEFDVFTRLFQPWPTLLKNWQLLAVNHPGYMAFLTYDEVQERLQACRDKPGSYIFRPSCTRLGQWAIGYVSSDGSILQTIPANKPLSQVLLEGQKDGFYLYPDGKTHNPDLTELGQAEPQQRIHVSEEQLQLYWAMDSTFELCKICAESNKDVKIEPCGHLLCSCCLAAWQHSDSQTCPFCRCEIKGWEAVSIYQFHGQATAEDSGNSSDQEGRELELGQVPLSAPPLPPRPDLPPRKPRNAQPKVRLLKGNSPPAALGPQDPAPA
The assay can be described thus: co-IP; HEK293T cells co-transfected; 200 µg lysate protein; HA-tagged Cbl proteins precipitated with HA-affinity matrix overnight at 4°C; lysis buffer 10 mM Tris-HCl pH 7.5, 150 mM NaCl, 5 mM EDTA, 1% Triton X-100, 10% glycerol; blot for Hic-5 or Trip-6.

Assay [2] addresses HA-epitope tagged Cbl, full length (UniProt P22681). The description is as above.
Assay [3] addresses HA-epitope tagged Cbl-b, full length (UniProt Q13191). The assay is described as above.
Assay [4] deals with T2, HA-epitope tagged Cbl-c C351A (UniProt Q9ULV8).
T2 sequence: T1 sequence with C351A
Described as above.

Assay [5] deals with T3, HA-epitope tagged Cbl-c C351A C366A double mutant (UniProt Q9ULV8).
T3 sequence: T1 sequence with C351A, C366A
The description is as above.

Assay [6] has as its target T4, HA-epitope tagged Cbl-c C366A (UniProt Q9ULV8).
T4 sequence: T1 sequence with C366A
The description is as above.

The target in assay [7] is T5, HA-epitope tagged Cbl-c Short (UniProt Q9ULV8).
T5 sequence: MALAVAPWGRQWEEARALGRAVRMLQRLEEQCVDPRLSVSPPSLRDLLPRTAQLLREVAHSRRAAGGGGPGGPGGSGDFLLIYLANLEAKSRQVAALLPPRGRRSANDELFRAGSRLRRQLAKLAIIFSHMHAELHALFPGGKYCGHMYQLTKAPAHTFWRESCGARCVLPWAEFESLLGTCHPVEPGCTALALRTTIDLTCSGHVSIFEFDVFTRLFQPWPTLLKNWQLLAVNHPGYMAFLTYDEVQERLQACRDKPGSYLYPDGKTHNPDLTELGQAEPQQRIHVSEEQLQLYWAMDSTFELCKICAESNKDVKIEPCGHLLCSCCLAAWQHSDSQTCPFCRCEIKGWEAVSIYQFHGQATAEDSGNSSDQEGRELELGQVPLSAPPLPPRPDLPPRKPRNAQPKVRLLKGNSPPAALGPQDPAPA
Described as above.

The target in assay [8] is T6, HA-epitope tagged Cbl-c ΔRF (UniProt Q9ULV8).
T6 sequence: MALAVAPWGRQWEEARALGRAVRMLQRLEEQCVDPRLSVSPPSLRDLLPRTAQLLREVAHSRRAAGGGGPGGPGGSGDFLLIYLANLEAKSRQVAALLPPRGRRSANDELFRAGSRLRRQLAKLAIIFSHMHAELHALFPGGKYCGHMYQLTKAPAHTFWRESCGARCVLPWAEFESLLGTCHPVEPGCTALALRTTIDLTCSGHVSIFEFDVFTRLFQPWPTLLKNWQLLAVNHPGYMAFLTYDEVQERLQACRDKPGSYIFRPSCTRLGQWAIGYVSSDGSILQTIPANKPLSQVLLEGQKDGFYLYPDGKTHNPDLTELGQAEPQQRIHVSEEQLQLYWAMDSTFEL
The assay is described as above.

The target in assay [9] is T7, endogenous Cbl-c (human (endogenous in CFPAC-1)) (UniProt Q9ULV8).
T7 sequence: T1 sequence
Briefly: co-IP; endogenous proteins; 2000 µg lysate protein; rabbit polyclonal anti-Cbl-c antibody and Protein A/G+ agarose overnight at 4°C; CFPAC-1 cells, with cells lacking Cbl-c as control; blot for Cbl-c and Hic-5.

As to “Hic-5 C287A (pCMV-Hic-5 mutant) (from UniProt O43294 1-461)”, the binding result in assay [1] is “no binding”.
Turning to “Hic-5 C313A (pCMV-Hic-5 mutant) (from UniProt O43294 1-461)”, the binding entry in assay [1] is on record as “binds”.
As to “Hic-5, full-length cDNA (pCMV-Hic-5) (from UniProt O43294 1-461)”, the binding entry was “no binding” in assay [2]; “no binding” in [3]; “binds” in assay [4]; “no binding” in assay [5]; “no binding” in assay [6]; “binds” in assay [7]. Further, the results for the binding entry in assay [8] and in assay [1] were “no binding” and “binds”, respectively.
In the case of “endogenous Hic-5 (from UniProt O43294 1-461)”, the binding entry in assay [9] is on record as “binds”.

The values are drawn from publication PMC3492284.
